These results are taken from patent US11161864B2, “Sting agonists” (Venenum Biodesign, LLC, priority 2018, dated 2021).

SMILES strings stand for the structures. Read-outs that look alike come from different tables or passages of the source.

What is called EC50 is the concentration giving half of the maximal effect.

In test [1] the target is HAQ STING protein, THP1 Dual (HAQ) human cells (Homo sapiens (Human), UniProt Q86WV6, G230A/H232R/R293Q/R71H). The experiment in a line: cell-based. Particulars: for Emax: THP1-Dual, 5 h; for EC50: Human HAQ Agonist EC50, 5 hrs.
Chain of HAQ STING protein, THP1 Dual (HAQ) human cells (Q86WV6 whole entry R71H/G230A/H232R/R293Q): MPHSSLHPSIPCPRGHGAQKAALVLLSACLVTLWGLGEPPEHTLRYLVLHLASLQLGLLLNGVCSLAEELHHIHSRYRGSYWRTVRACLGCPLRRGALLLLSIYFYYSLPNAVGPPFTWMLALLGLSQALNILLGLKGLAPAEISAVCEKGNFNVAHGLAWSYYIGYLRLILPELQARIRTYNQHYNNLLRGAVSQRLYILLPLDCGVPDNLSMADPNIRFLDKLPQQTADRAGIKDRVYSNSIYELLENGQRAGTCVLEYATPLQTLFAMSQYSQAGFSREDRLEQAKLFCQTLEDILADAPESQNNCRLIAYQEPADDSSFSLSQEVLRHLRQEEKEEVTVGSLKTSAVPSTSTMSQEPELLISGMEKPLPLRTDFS
Test [2] deals with STING pathway, RAW-Dual Reporter cell line. The experiment in a line: cells. The following applies: Mus musculus, 5 h.
In test [3] the target is wildtype (WT) STING protein, THP1 Dual (WT) human cells (Homo sapiens (Human), UniProt Q86WV6, H232R). The experiment in a line: cell-based. The following applies: for Emax: THP1-Dual, 5 h; for EC50: Human WT Agonist EC50, 5 hrs.
Chain of wildtype (WT) STING protein, THP1 Dual (WT) human cells (Q86WV6 whole entry H232R): as the sequence (Q86WV6 whole entry R71H/G230A/H232R/R293Q) above, with H71R, A230G, Q293R counted along it
[4] abbreviates: read-out: Human HAQ Agonist Efficacy, 5 hrs.
[5] abbreviates: read-out: Murine Agonist Efficacy, 5 hrs.
[6] abbreviates: read-out: Human WT Agonist Efficacy, 5 hrs.
Where [7] appears, read: read-out: Murine Agonist EC50, 5 hrs.

Regarding `Nc1nc2ncn([C@@H]3O[C@@H]4COP(=O)(S)OCCn5c(nc6cc(Cl)cnc65)COP(=O)(S)O[C@@H]3[C@@H]4F)c2c(=O)[nH]1` (stereo partly drawn) [Example 13A, (1S,21R,23R,24R)-23-(2-Amino-6-oxo-6,7-dihydro-1H-purin-7-yl)-10-chloro-24-fluoro-3,18-disulfanyl-2,4,17,19,22-pentaoxa-7,12,14-triaza-3lambda5,18lambda5-diphosphatetracyclo[19.2.1.06,14.08,13]tetracosa-6,8,10,12-tetraene-3,18-dione], the values for the Emax in test [1] (setting [4]), in test [2] (setting [5]) and in test [3] (setting [6]) were over 100%, over 100% and under 100%, respectively.

For the compound `Nc1nc2c(ncn2[C@@H]2O[C@@H]3COP(=O)(S)OCCn4c(nc5cc(Cl)cnc54)COP(=O)(S)O[C@@H]2[C@@H]3F)c(=O)[nH]1` (stereo partly drawn) [Example 14A, (1S,21R,23R,24R)-23-(2-Amino-6-oxo-6,9-dihydro-1H-purin-9-yl)-10-chloro-24-fluoro-3,18-disulfanyl-2,4,17,19,22-pentaoxa-7,12,14-triaza-3lambda5,18lambda5-diphosphatetracyclo[19.2.1.06,14.08,13]tetracosa-6,8,10,12-tetraene-3,18-dione], the values for the Emax in test [1] (setting [4]), in test [2] (setting [5]) and in test [3] (setting [6]) were over 100%, over 100% and under 100%, respectively.

Turning to `Nc1nc2c(ncn2[C@@H]2O[C@@H]3COP(=O)(S)OCCn4c(nc5cncnc54)COP(=O)(S)O[C@@H]2[C@@H]3O)c(=O)[nH]1` (stereo partly drawn) [Example 15A, (1R,21R,23R,24R)-23-(2-Amino-6-oxo-6,9-dihydro-1H-purin-9-yl)-24-hydroxy-3,18-disulfanyl-2,4,17,19,22-pentaoxa-7,10,12,14-tetraaza-3lambda5,18lambda5-diphosphatetracyclo[19.2.1.06,14.08,13]tetracosa-6,8,10,12-tetraene-3,18-dione], the figures for the Emax in test [1] (setting [4]), in test [2] (setting [5]) and in test [3] (setting [6]) were over 100%, over 100% and under 100%, respectively.

In the case of `Nc1nc2c(ncn2[C@@H]2O[C@@H]3COP(=O)(S)OCCn4nc(-c5cncs5)nc4COP(=O)(S)O[C@@H]2[C@@H]3F)c(=O)[nH]1` (stereo partly drawn) [Example 16A, (1S,17R,19R,20R)-19-(2-Amino-6-oxo-6,9-dihydro-1H-purin-9-yl)-20-fluoro-3,14-disulfanyl-8-(1,3-thiazol-5-yl)-2,4,13,15,18-pentaoxa-7,9,10-triaza-3lambda5,14lambda5-diphosphatricyclo[15.2.1.06,10]icosa-6,8-diene-3,14-dione], the Emax is over 100% in test [1] (setting [4]), over 100% in test [2] (setting [5]) and under 100% in test [3] (setting [6]).

As for `Nc1nc2c(ncn2[C@@H]2O[C@@H]3COP(=O)(S)OCCn4c(nc5cnccc54)COP(=O)(S)O[C@@H]2[C@@H]3F)c(=O)[nH]1` (stereo partly drawn) [Example 17C, (1S,21R,23R,24R)-23-(2-Amino-6-oxo-6,9-dihydro-1H-purin-9-yl)-24-fluoro-3,18-disulfanyl-2,4,17,19,22-pentaoxa-7,10,14-triaza-3lambda5,18lambda5-diphosphatetracyclo[19.2.1.06,14.08,13]tetracosa-6,8,10,12-tetraene-3,18-dione], the Emax in test [1] (setting [4]) is over 100%; in test [2] (setting [5]), under 100%; in test [3] (setting [6]) it was under 100%.

With `Nc1nc2c(ncn2[C@@H]2O[C@@H]3COP(=O)(S)OCC(F)(F)Cn4c(nc5cncnc54)COP(=O)(S)O[C@@H]2[C@@H]3F)c(=O)[nH]1` (stereo partly drawn) [Example 19A, (1S,22R,24R,25R)-24-(2-Amino-6-oxo-6,9-dihydro-1H-purin-9-yl)-16,16,25-trifluoro-3,19-disulfanyl-2,4,18,20,23-pentaoxa-7,10,12,14-tetraaza-3lambda5,19lambda5-diphosphatetracyclo[20.2.1.06,14.08,13]pentacosa-6,8,10,12-tetraene-3,19-dione], the Emax in test [1] (setting [4]), in test [2] (setting [5]) and in test [3] (setting [6]) was under 100% in each case.

On to `C[C@H]1COP(=O)(S)OC[C@H]2O[C@@H](n3cnc4c(=O)[nH]c(N)nc43)[C@H](OP(=O)(S)OCc3nc4cncnc4n31)[C@@H]2F` (stereo partly drawn) [Example 20D, (1S,15S,21R,23R,24R)-23-(2-Amino-6-oxo-6,9-dihydro-1H-purin-9-yl)-24-fluoro-15-methyl-3,18-disulfanyl-2,4,17,19,22-pentaoxa-7,10,12,14-tetraaza-3lambda5,18lambda5-diphosphatetracyclo[19.2.1.06,14.08,13]tetracosa-6,8,10,12-tetraene-3,18-dione], for which the Emax was over 100% in test [1] (setting [4]), under 100% in test [2] (setting [5]) and under 100% in test [3] (setting [6]).

`Nc1nc2c(ncn2[C@@H]2O[C@@H]3COP(=O)(S)OCCn4c(nc5cncnc54)COP(=O)(S)O[C@@H]2C3)c(=O)[nH]1` (stereo partly drawn) [Example 22A, (1R,21S,23R)-23-(2-Amino-6-oxo-6,9-dihydro-1H-purin-9-yl)-3,18-disulfanyl-2,4,17,19,22-pentaoxa-7,10,12,14-tetraaza-3lambda5,18lambda5-diphosphatetracyclo[19.2.1.06,14.08,13]tetracosa-6,8,10,12-tetraene-3,18-dione]: the Emax in test [1] (setting [4]) is over 100%; in test [2] (setting [5]), over 100%; in test [3] (setting [6]), under 100%.

In the case of `Nc1nc2c(nc3n2CCOP(=O)(S)OC[C@H]2O[C@@H](n4cnc5c(N)ncnc54)[C@H](OP(=O)(S)OC3)[C@@H]2F)c(=O)[nH]1` (stereo partly drawn) [Example 23B, (1S,21R,23R,24R)-11-Amino-23-(6-amino-9H-purin-9-yl)-24-fluoro-3,18-disulfanyl-2,4,17,19,22-pentaoxa-7,10,12,14-tetraaza-3lambda5,18lambda5-diphosphatetracyclo[19.2.1.06,14.08,13]tetracosa-6,8(13),11-triene-3,9,18-trione], the values for the Emax in test [1] (setting [4]), in test [2] (setting [5]) and in test [3] (setting [6]) were over 100%, under 100% and under 100%, respectively. Moreover, the EC50 in test [2] (setting [7]) fell in the range of 10 to 99.9 µM.

As to `Nc1nc2c(nnn2[C@@H]2O[C@@H]3COP(=O)(S)OCCn4c(nc5cncnc54)COP(=O)(S)O[C@@H]2[C@@H]3F)c(=O)[nH]1` (stereo partly drawn) [Example 24A, (1S,21R,23R,24R)-23-{5-Amino-7-oxo-3H,6H,7H-[1,2,3]triazolo[4,5-d]pyrimidin-3-yl}-24-fluoro-3,18-disulfanyl-2,4,17,19,22-pentaoxa-7,10,12,14-tetraaza-3lambda5,18lambda5-diphosphatetracyclo[19.2.1.06,14.08,13]tetracosa-6,8,10,12-tetraene-3,18-dione], the Emax in test [1] (setting [4]), in test [2] (setting [5]) and in test [3] (setting [6]) was under 100% in each case.

For `Nc1nc2c(ncn2[C@@H]2O[C@@H]3COP(=O)(S)OCCn4c(nc5cncnc54)COP(=O)(S)O[C@@H]2[C@H]3F)c(=O)[nH]1` (stereo partly drawn) [Example 25B, (1S,21R,23R,24S)-23-(2-Amino-6-oxo-6,9-dihydro-1H-purin-9-yl)-24-fluoro-3,18-disulfanyl-2,4,17,19,22-pentaoxa-7,10,12,14-tetraaza-3lambda5,18lambda5-diphosphatetracyclo[19.2.1.06,14.08,13]tetracosa-6,8,10,12-tetraene-3,18-dione], the Emax in test [1] (setting [4]), in test [2] (setting [5]) and in test [3] (setting [6]) was under 100% in each case.

As to `CO[C@H]1[C@H]2OP(=O)(S)OCc3nc4cncnc4n3CCOP(=O)(S)OC[C@H]1O[C@H]2n1cnc2c(=O)[nH]c(N)nc21` (stereo partly drawn) [Example 27B, (1R,21R,23R,24R)-23-(2-Amino-6-oxo-6,9-dihydro-1H-purin-9-yl)-24-methoxy-3,18-disulfanyl-2,4,17,19,22-pentaoxa-7,10,12,14-tetraaza-3lambda5,18lambda5-diphosphatetracyclo[19.2.1.06,14.08,13]tetracosa-6,8,10,12-tetraene-3,18-dione], the Emax in test [1] (setting [4]), in test [2] (setting [5]) and in test [3] (setting [6]) was under 100% in each case.

As to `Nc1nc2c(ncn2[C@@H]2O[C@@H]3COP(=O)(S)OCCn4nc(-c5ccncc5)nc4COP(=O)(S)O[C@@H]2[C@@H]3F)c(=O)[nH]1` (stereo partly drawn) [Example 34C, (1S,17R,19R,20R)-19-(2-Amino-6-oxo-6,9-dihydro-1H-purin-9-yl)-20-fluoro-8-(pyridin-4-yl)-3,14-disulfanyl-2,4,13,15,18-pentaoxa-7,9,10-triaza-3lambda5,14lambda5-diphosphatricyclo[15.2.1.06,10]icosa-6,8-diene-3,14-dione], the Emax in test [1] (setting [4]), in test [2] (setting [5]) and in test [3] (setting [6]) was over 100% throughout.

Regarding `Nc1nc2c(ncn2[C@@H]2O[C@@H]3COP(=O)(S)OCCn4c(nc5cncnc54)COP(=O)(S)O[C@@H]2C3(F)F)c(=O)[nH]1` (stereo partly drawn) [Example 36D, (1S,21R,23R)-23-(2-Amino-6-oxo-6,9-dihydro-1H-purin-9-yl)-24,24-difluoro-3,18-disulfanyl-2,4,17,19,22-pentaoxa-7,10,12,14-tetraaza-3lambda5,18lambda5-diphosphatetracyclo[19.2.1.06,14.08,13]tetracosa-6,8,10,12-tetraene-3,18-dione], the EC50 in test [1] was under 10 µM; in test [2] (setting [7]), under 10 µM; in test [3], 10 to 99.9 µM. The figures for the Emax in test [1] (setting [4]), in test [2] (setting [5]) and in test [3] (setting [6]) were over 100%, under 100% and under 100%, respectively.

Consider `NC(=O)c1cnc2c(c1)nc1n2CCOP(=O)(S)OC[C@H]2O[C@@H](n3cnc4c(=O)[nH]c(N)nc43)[C@H](OP(=O)(S)OC1)[C@@H]2F` (stereo partly drawn) [Example 37A, (1S,21R,23R,24R)-23-(2-Amino-6-oxo-6,9-dihydro-1H-purin-9-yl)-24-fluoro-3,18-dioxo-3,18-disulfanyl-2,4,17,19,22-pentaoxa-7,12,14-triaza-3lambda,5,18lambda5-diphosphater], for which the concentration giving a half-maximal response (EC50) in test [1], in test [2] (read-out: Murine Agonist EC50) and in test [3] was under 10 µM each time. For the same compound, the Emax in test [1] (read-out: Human HAQ Agonist Efficacy) was over 100%; in test [2] (read-out: Murine Agonist Efficacy), over 100%; in test [3] (read-out: Human WT Agonist Efficacy), under 100%.
